The values below come from the supplement of paper PMC3334620.

Whole data set: some 33,000 sequences, median “E-score (-0.5 to 0.5)” near -0.011, cut for the highest 2% near 0.28. This is one part of the list.

The assay addresses T1, Gcr1 (UniProt P07261).
T1 sequence: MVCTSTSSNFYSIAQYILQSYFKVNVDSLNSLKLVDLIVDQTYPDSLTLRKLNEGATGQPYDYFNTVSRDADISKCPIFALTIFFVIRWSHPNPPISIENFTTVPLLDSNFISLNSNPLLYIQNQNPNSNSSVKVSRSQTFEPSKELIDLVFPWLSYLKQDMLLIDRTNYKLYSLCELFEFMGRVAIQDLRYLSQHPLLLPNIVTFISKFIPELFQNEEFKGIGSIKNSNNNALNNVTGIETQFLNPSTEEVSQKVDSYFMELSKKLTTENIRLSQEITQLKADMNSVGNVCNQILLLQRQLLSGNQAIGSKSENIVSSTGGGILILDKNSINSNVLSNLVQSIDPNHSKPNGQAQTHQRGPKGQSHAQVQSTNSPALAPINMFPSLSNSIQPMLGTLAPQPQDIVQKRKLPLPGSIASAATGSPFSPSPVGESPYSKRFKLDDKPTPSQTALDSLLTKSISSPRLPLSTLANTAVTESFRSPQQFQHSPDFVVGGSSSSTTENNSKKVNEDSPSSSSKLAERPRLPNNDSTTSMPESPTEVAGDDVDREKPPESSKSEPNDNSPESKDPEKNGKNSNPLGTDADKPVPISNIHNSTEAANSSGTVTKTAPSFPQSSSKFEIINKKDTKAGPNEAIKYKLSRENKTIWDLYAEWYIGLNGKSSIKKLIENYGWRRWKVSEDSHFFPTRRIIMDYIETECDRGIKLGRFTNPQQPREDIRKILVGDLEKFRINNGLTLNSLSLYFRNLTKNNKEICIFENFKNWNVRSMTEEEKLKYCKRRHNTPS
As to the kind of experiment: PBM E-score (8-mer binding enrichment) (E-score (-0.5 to 0.5)); higher = stronger / more preferred TF binding; most listed sequences are background and not binding sites. The following applies: protein concentration: 100 nM; construct: GST-full length. In a few lines:
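Full-length yeast transcription factors or their DNA-binding domains, GST-tagged and expressed with PURExpress, were applied at about 100-200 nM to universal all-10-mer Agilent arrays. These arrays had been made double-stranded by primer extension on fresh or once-stripped slides. Detection used fluorescent anti-GST, normalisation used masliner, and E-scores for ungapped eight-base words pooled with reverse complements came from the Universal PBM Analysis Suite.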
With ATAAACAC, the “PBM E-score” value was determined as 0.0109.
The figure for AGCCGAAC is -0.184; for CCCCCAAG it is -0.0798; for CCAGCACG it is 0.179.
As for GCGGTTCA, the “PBM E-score” value was -0.231.
The figure for GCAACCTA is 0.179; for GACCGCAA it is 0.0768; for AAGAACCG it is 0.0757.
For the sequence CATCTCTA, the “PBM E-score” value is -0.198.
For ACATTCCT the value was 0.0561.
For GATCGGTA the value was -0.0907.
The figure for AAGACATT is -0.0207.
For CGCCCTGA, the “PBM E-score” value stood at 0.0841.
Take CTGGTATC: the “PBM E-score” value was 0.231.
For the sequence GCATGAAA, the “PBM E-score” value is -0.0306.
For GCACCGCC the value was -0.175; for AGCAGGGC, -0.0214; for ACGATCTG, -0.0915.
Regarding ACAAGTGT, the “PBM E-score” value is -0.142.
With ATAATTAA, the “PBM E-score” value came to 0.134.
The figure for AGCATCAC is 0.00094.
Take GAGCTCCA: the “PBM E-score” value was -0.109.
With ACATGGAG, the “PBM E-score” value was -0.201.
For the sequence CCCAGTGC, the “PBM E-score” value was determined as 0.113.
The figure for CAAGTTTA is 0.0568; for GCGGTTAC it is 0.0747; for GATCGAAC it is -0.0495.
In the case of ACGAATTG, the “PBM E-score” value stood at 0.0645.
The figure for CTAAGCAA is -0.0849.
The figure for GTTTAGTA is 0.146.
For AAGCTCTG the value was -0.0861; for CGAACGAA, -0.122.
As for AGCTCTCA, the “PBM E-score” value is -0.161.
The figure for GTTTTGCA is 0.0247; for GAGCTTCA it is 0.00823.
The figure for AGTTTCTG is -0.0119.
For the sequence GCATCGGA, the “PBM E-score” value is 0.0246.
The figure for CGGATTCA is -0.0182; for ACGTACCA it is 0.118.
For AATCTCTC the value was -0.121; for CTTTGACC, -0.0466.
Take TCTTTCAA: the “PBM E-score” value is -0.215.
The figure for GGCCTTGA is -0.0649; for AGGAATGC it is 0.228.
For AATCCGAG the value was 0.0975; for AACAGCAC, 0.0366; for TAACAGCA, 0.201.
The figure for ACGGTTAG is -0.0243; for GCTGAGGA it is -0.0958; for ACCCTAGC it is -0.00437.
ATACATAC: the “PBM E-score” value amounted to 0.0754.
As for AAATAAGT, the “PBM E-score” value came to 0.0572.
On to ATAGCAGC, for which the “PBM E-score” value worked out at 0.127.
For AGTCTTTG the value was -0.0405; for ACCACTCG, 0.0865.
Turning to CCCTCCTC, the “PBM E-score” value is -0.0251.
With GTAGTGGA, the “PBM E-score” value came to 0.285.
The figure for ACTGGTAC is 0.205; for ATTTGCCC it is 0.126.
Consider AATTAGGC, for which the “PBM E-score” value worked out at 0.327.
For CGTGAACA the value was 0.148; for ATATGTGC, -0.063; for CTCATTTC, -0.0305.
For CGTCATGA the value was -0.118; for ATACCGAG, -0.0781.
With GGCCGTAC, the “PBM E-score” value was -0.2.
In the case of GCGGGTAA, the “PBM E-score” value is -0.0803.
The figure for AGCATTAT is -0.0632; for CATAGAGG it is 0.0162; for GGGTATTA it is -0.0133.
With ACCCGAAA, the “PBM E-score” value came out at 0.14.
Regarding ACGAGGTC, the “PBM E-score” value was 0.175.
Consider ATATATTC, for which the “PBM E-score” value is -0.0491.
As for CTGCATCC, the “PBM E-score” value was 0.249.
Take ACAAACAA: the “PBM E-score” value was -0.0402.
For CGTACCGA the value was -0.16; for CCTTTCTC, -0.0392.
The figure for CCACCTGC is -0.196.
For CAGTCATC the value was -0.266; for ATAGTCTA, -0.158; for TCCGTCCA, 0.0563.
For the sequence TAGGTCAA, the “PBM E-score” value was -0.206.
For CGTAATAG the value was 0.112; for AATCCGGC, 0.181.
GTCCTTAA: the “PBM E-score” value came to 0.102.
The figure for CCTAATTA is 0.157; for CCCCCATC it is -0.144; for ACCAGCAC it is -0.0275.
The figure for CCAAGCCG is -0.0556; for CGGCCAGC it is 0.0354; for AGCCCGAG it is -0.113.
For AGAGCTCT the value was -0.198; for GGCGATGA, -0.216; for AGTCGACA, -0.00875.
With CTTAACTC, the “PBM E-score” value was -0.0912.
The figure for TATGGCCA is -0.0811; for AATTGTCG it is -0.151.
Regarding CGAACTTA, the “PBM E-score” value is -0.0605.
The figure for CGACGTGC is -0.107; for ATCGTCTA it is 0.0426.
In the case of CCTCGAAA, the “PBM E-score” value was -0.0179.
As for AAGGAGTA, the “PBM E-score” value is -0.182.
The figure for CACCCACC is 0.0648; for CCCCAGAA it is 0.288; for TAAGCGCA it is -0.0709.
The figure for ACCAATGG is 0.0385.
With ATCCGCGA, the “PBM E-score” value amounted to 0.0471.
The figure for AAGGTATA is -0.131.
On to GGTTCACA, for which the “PBM E-score” value is -0.169.
Turning to GAGTGCCC, the “PBM E-score” value is -0.115.
